# Data reported in PubChem BioAssay AID1745849 (National Center for Advancing Translational Sciences (NCATS), 2022).
# Out of some 2,100 compounds screened, about 320 (15%) were called active. The inconclusive results got no clear call from the source; some entries with a clear call stand among them for comparison. Calls come from the whole dose curve; as a rule, active = well fitted cell-killing curve with a large enough effect; inconclusive = small, poorly fitted or top-dose-only effect, or effect the other way; inactive = flat fitted curve, though single readings scatter. Potencies beside an inconclusive call are fits to weak or partial responses and may not hold up.
# Assay: Viability Counterscreen for CMV-Luciferase Assay of Inhibitors of ATXN expression; note: nearly all actives have a fitted effect of over 55% in size
# Conditions: HEK-293 CMV-luciferase cells viability, protease fluorescence, 24 h; series mostly up to 57.5 µM
# Description: PI: Daniel Scoles Ph.D. University of Utah School of Medicine, Salt Lake City, Utah MLPCN Grant: NS073009 Spinocerebellar ataxia type 2 (SCA2) is a multisystem neurodegenerative disease caused by a dominantly acting mutation leading to expansion of a polyQ domain in the ataxin-2 protein (ATXN2). SCA2 patients develop progressive ataxia and later lose function in other neuronal systems. Prominent parkinsonian signs develop in some patients. Like many neurodegenerative disorders, no symptomatic or disease-modifying treatments are known. The primary objective of the proposed research is to identify compounds inhibiting ATXN2 expression and to test them for efficacy in SCA2 mouse models. We have developed a cell-based assay paired with an in vivo mouse model using identical luciferase expression constructs. This approach takes advantage of an ATXN2-luciferase transgene, with the luciferase gene flanked by the upstream and downstream portions of the ATXN2 gene. Here we describe a 5-7 dose quantitative high thoroughput screen (qHTS) for compounds lowering ATXN2 expression. We screened the NIH Molecular Libraries Small Molecule Repository (MLSMR) and NCGC's mechanistically annotated (MIPE) and drug repurposing (NPC) collections of compounds for lowering expression of an ATXN2-luciferase reporter in HEK-293 cells. The assay is a multiplexed cell viability assay to ensure target reduction in the absence of cytotoxicity. Secondary qHTS assays included a CMV-luciferase reporter expressed in HEK-293 cells as well as a biochemical assay using recombinant luciferase to detect inhibitors of the reporter enzyme. Compounds that inhibit ATXN2 expression but is not cytotoxic were selected for confirmatory and secondary screens.
# PROTOCOL TABLE (as described by Inglese J, Shamu CE and Guy RK. 2007) SEQUENCE No. (e.g., 1, 2, 3, etc.); […] (e.g., Cells, Incubation, Reagent, etc.); VALUE; DESCRIPTION. 1; Cells; 4 uL; white, solid bottom, 1536-well Greiner assay plate. 2; Incubation; 2 hr; 37 degree C in 5% humidified CO2. 3; Compounds; 23 nL; Kalypsis pintool (Wako USA) equipped with a 1536-well pin head. 4; Incubation; 24 hr; 37 degree C in 5% humidfified CO2. 5; Reagent; 1 uL; Gly-Phe-7-Amino-4-trifluoromethylcoumarin. 6; Incubation; 30 min; 37 degree C in 5% humidfified CO2. 7; Detection; Fluorescence; Viewlux plate reader (PerkinElmer). 8; Reagent; 3 uL; SteadyGlo luciferase solution (Promega). 9; Incubation; 5 min; room temperature. 10; Detection; Luminescence; ViewLux plate reader (PerkinElmer). NOTES (numbers refer to Sequence numbers above) 1. HEK-293 cells expressing CMV-luciferase reporter (designated as SC cells) were suspended in phenol-red free DMEM and dispensed in assay plates using a Multidrop Combi dispenser (Thermo Fisher Scientific). 2. Assay plates were incubated. Evaporation was prevented by covering assay plates with metal lids containing holes to allow gas diffusion. 3. Compounds were added in a dose response manner with the final concentrations of 57, 11.4, 2.28, 0.46, 0.091, 0.018, 0.0037 uM. Vehicle-only plates, with DMSO being pin-transferred to columns 5-48, were inserted uniformly at the beginning and the end of each library to monitor and record any shifts in assay performance. 5. 125 uM Gly-Phe-7-Amino-4-trifluoromethylcoumarin (MP Biomedicals) working concentration was used at a final concentration of 25 uM. 7. To assess cell viability; the assay plates were read using the ViewLux high-throughput CCD imager (PerkinElmer), wherein single end-point fluorescence measurement was acquired (excitation 405/10; emission 540/25 nm). 8. Detection reagent SteadyGlo Luciferase (Promega) was added to the assay plate. 10. Luminescence is then measured on the ViewLux imager equipped with a clear emission filter using a 2 sec exposure. […]
# % is set by controls: 0 for no effect and ±100 for the full control effect; potency is the fitted concentration of half-maximal effect; tags give direction and shape of the fitted curve.
SMILES,Potency,"activity change, negative = cytotoxicity"
O=C(CSC1c2ccccc2-c2ccccc21)N/N=C/c1ccccc1O,active: 3.55 µM,
COc1cc2c(ccc3c4cc(OC)c(OC)cc4c[n+](C)c23)cc1O,"inconclusive: 14.1 µM [cytotoxic, partial curve]",
Cc1c2ccncc2c(C)c2c1[nH]c1ccccc12,"inconclusive: 39.8 µM [rising, single point]",
CCCCn1c(=O)c(C(=O)Nc2ccccc2S(N)(=O)=O)c(O)c2ccccc21,"inconclusive: 28.2 µM [cytotoxic, partial curve, poor fit]",
CCCCc1ccc2[nH]cc(CCN)c2c1,"inconclusive: 1.26 µM [cytotoxic, partial curve]",
Cc1ccc(N2C(=O)NC(=O)/C(=C/C=C/c3ccco3)C2=O)cc1,"inconclusive: 3.55 µM [cytotoxic, single point]",
Cc1cccc(C)c1-n1nnnc1C(c1cc2ccccc2o1)N1CCC(n2c(=O)[nH]c3ccccc32)CC1 (stereo unspecified),active: 7.94 µM,
Cc1cccc(-n2c(/C=C/c3ccc([N+](=O)[O-])o3)nc3ccccc3c2=O)c1,"inconclusive: 39.8 µM [rising, single point]",
CCC1CN2CCc3cc(OC)c(OC)cc3C2CC1CC1NCCc2c1[nH]c1ccc(O)cc21 (stereo unspecified),"inconclusive: 0.0562 µM [cytotoxic, full curve, poor fit]",
COc1ccc(C[C@H]2NC[C@H](O)[C@H]2OC(C)=O)cc1,"inconclusive: 0.0398 µM [cytotoxic, full curve, poor fit]",
Oc1c(Cl)cccc1Cc1cc(Cl)cc(Cl)c1O,active: 15.8 µM,
CC1OC(OC2C(O)CC(OC3C(O)CC(OC4CCC5(C)C(CCC6C5CCC5(C)C(C7=CC(=O)OC7)C(O)CC65O)C4)OC3C)OC2C)CC(O)C1O (stereo unspecified),active: 0.251 µM,
C1=NCCc2c1[nH]c1ccccc21,,inactive: 1.29% [at 11.4 µM]
C[C@H]1CCC[C@H](O)CCCCCc2cc(O)cc(O)c2C(=O)O1,,inactive: -5.55% [at 11.4 µM]
Cc1ccc(-c2nc(N(C)C3CCN(C)CC3)c3ccccc3n2)cc1,inactive,
COc1ccc(N=Cc2c(O)n(-c3ccc(C)cc3)c(=O)[nH]c2=O)cc1,"inconclusive: 39.8 µM [rising, single point]",
CCn1c(O)c(/C=N/NC(=O)c2ccccc2)c(=O)n(CC)c1=S,"inconclusive: 15.8 µM [cytotoxic, single point]",
CCCCCCC(=O)N/N=C/c1c(O)n(CCCC)c(=S)[nH]c1=O,inactive,
CC1CC(C)CC(C)C(O)C(C#N)=CC=CCC(C2CCCC2C(=O)O)OC(=O)CC(O)C(C)C1 (stereo unspecified),active: 0.398 µM,
CSCCC(c1nnnn1-c1c(C)cccc1C)N1CCC2(CC1)C(=O)NCN2c1ccccc1 (stereo unspecified),active: 28.2 µM,
CCC(C)(O)C(=O)OC1C(=O)OC2CC3C(C)=CC(=O)C(O)C3(C)C3C4(O)OCC23C1C(C)C4O (stereo unspecified),active: 0.316 µM,

SMILES,Potency,"activity change, negative = cytotoxicity"
CN1CN(c2ccccc2)C2(CCN(CCCSc3ccccc3NC(=O)/C=C/c3ccccc3)CC2)C1=O,"inconclusive: 39.8 µM [cytotoxic, single point]",
CCCCCOc1ccc(C)cc1CN(CCCl)CCCl,active: 22.4 µM,
COC(=O)c1nc(-c2ccc3c(n2)C(=O)C(N)=C(OC)C3=O)c(N)c(-c2ccc(OC)c(OC)c2O)c1C,active: 20 µM,
NC(Cc1ccc(Cl)cc1)c1csc(Nc2ccccn2)n1 (stereo unspecified),"inconclusive: 5.01 µM [cytotoxic, partial curve]",
COc1cccc(C(c2nnnn2-c2ccc3c(c2)OCCO3)N2CCC(n3c(=O)[nH]c4ccccc43)CC2)c1OC (stereo unspecified),"inconclusive: 3.98 µM [cytotoxic, partial curve]",
CC12CCC(O)CC1CCC1C2CCC2(C)C(C3=CC(=O)OC3)C(O)CC12O (stereo unspecified),active: 7.94 µM,
CNC(=O)Nc1ccc(C(=O)N/N=C\C23CC[C@@H](O)CC2(O)CC[C@@H]2[C@@H]3CCC3(C)C(C4=CC(=O)OC4)CCC23O)cc1 (stereo partly specified),"inconclusive: 35.5 µM [cytotoxic, single point]",
CC(C)CCn1c(N)c(C(=O)NCc2cccs2)c2nc3ccccc3nc21,"inconclusive: 39.8 µM [rising, single point]",
C[C@]12CC[C@H](O)C[C@H]1CC[C@@H]1C2CC[C@]2(C)[C@@H](C3=CC(=O)OC3)[C@@H](O)C[C@]12O (stereo partly specified),"inconclusive: 1.12 µM [cytotoxic, partial curve]",
CC(=O)OC1(C)CC(C)C(=O)C(C(O)CC2CC(=O)NC(=O)C2)C1 (stereo unspecified),"inconclusive: 0.0224 µM [cytotoxic, full curve, poor fit]",
O=C(Nc1ccc(OC(=O)N2CCCCC2)cc1)N1CCOCC1,inactive,
N[C@@H](Cc1ccc(N(CCCl)CCCl)cc1)C(=O)O,active: 12.6 µM,
CN1C(=O)NC(=O)/C(=C\C=C\c2ccccc2[N+](=O)[O-])C1=O,active: 7.94 µM,
CCCCC(=O)N/N=C/c1c(O)n(Cc2ccc(F)cc2)c(=O)[nH]c1=O,"inconclusive: 15.8 µM [cytotoxic, single point]",
C#CCCC[C@@H]1OC(=O)CNC(=O)C([C@@H](C)CC)NC(=O)[C@@H]2CCCN2C(=O)C([C@@H](C)CC)OC(=O)[C@H](Cc2ccccc2)N(C)C(=O)[C@H](C(C)C)NC(=O)C1(C)C (stereo partly specified),"inconclusive: 20 µM [cytotoxic, partial curve, poor fit]",
C=Cc1cc(OC)c2c(c1)c(=O)oc1c2cc(OC)c2c(O)ccc(C3OC(C)C(O)C(C)(O)C3O)c21 (stereo unspecified),"inconclusive: 39.8 µM [rising, single point]",
Nc1c(C(=O)NCCc2ccccc2)c2nc3ccccc3nc2n1CCN1CCOCC1,"inconclusive: 28.2 µM [rising, partial curve]",
CN1C2CCC1/C(=C/c1ccccn1)C(=O)/C2=C\c1ccccn1,active: 0.708 µM,
COC(=O)C(O)(c1ccc(NC(=S)NC(=O)c2ccc(Cl)cc2Cl)c(C)c1)C(F)(F)F (stereo unspecified),,inactive: 1.53% [at 11.4 µM]
COC1C(O)C(C)OC(OC2CCC3(C)C(CCC4C3C(O)CC3(C)C(C5=CC(=O)OC5)CCC43O)C2)C1O (stereo unspecified),"inconclusive: 0.631 µM [cytotoxic, full curve]",
